± gives the standard deviation of the averaged measurements. The list shows a part of the results.

The test system of the test is PfAP2-G AP2 domain (GST-tagged). Briefly: gcPBM binding intensity (ln(normalized median fluorescence intensity)); higher = stronger DNA binding. The method, boiled down:
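GST-tagged P. falciparum DNA-binding domains produced in E. coli were incubated for 1 h on an Agilent 4 × 180k array of primer-extended double-stranded 36-bp intergenic genomic probes with negative controls. Binding intensity is the highest Masliner-normalised natural-log median intensity across replicate spots of either probe orientation, with bound protein detected by Alexa488 anti-GST antibody at 488 nm.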
As to “TTATTTATACGCTATGAGTTTGATACAAACAATTAA [XGTACX_negctrl_site456]”, the “gcPBM binding intensity (ln)” value is 10.2 ± 0.23. Turning to “TTTTTACGGAATTAGAGAAAAGAAATAAAAAAAAAA [XGTACX_negctrl_site436]”, the “gcPBM binding intensity (ln)” value was 9.91 ± 0.19. For “TTTATATTTATGTAGGTGCATTTGTTTACAACATAT [GTGCAC_site9511]”, the “gcPBM binding intensity (ln)” value stood at 10.2 ± 0.2. Regarding “TAGTTATCACATTGCACACACATTTCCTTTTACATT [CACACA_site7589]”, the “gcPBM binding intensity (ln)” value is 10.225 ± 0.007. With AATAAATTCATGATAGTGCAAAAATTATTTTTGTTA the figure was 9.725 ± 0.007; with “GCATAACCTTTATATTGTACATATACCTTTATTGTT [XGTACX_site6046]”, 10.9 ± 0.38. For the sequence “ACGTTAAAAACAAGTTGTACACAATAAATTATTCTT [XGTACX_site6321]”, the “gcPBM binding intensity (ln)” value turned out to be 11.5 ± 0.92. In the case of “TTTTTTGTTATTTTCCGTTTTTTTCCATTATAATTT [GTGCAC_negctrl_site461]”, the “gcPBM binding intensity (ln)” value was determined as 10.12 ± 0.085. Regarding “TATTCAAAGAAAAACTGTACGTGTAGCCTACATCCT [XGTACX_site7707]”, the “gcPBM binding intensity (ln)” value amounted to 11.4 ± 0.93. With “ATTATCCATCAAAAGGTGCAAATTTTTAATTATAAA [GTGCAC_site9932]”, the “gcPBM binding intensity (ln)” value worked out at 10.1 ± 0.34. In the case of “TGAGTCTTTTACATTGCACACACATTTCTTTCCTTT [CACACA_site8978]” it was 10.1; in that of “AAAGATGATAAAATATGTACACACAGTTTATACATT [XGTACX_site8703]”, 11.4 ± 0.76. As to “TCTTATATTATATTGTGTATTAAAATTTAACTTCAA [TGCATGCA_negctrl_site565]”, the “gcPBM binding intensity (ln)” value was 9.99 ± 0.13. Take “TTAAAGTTACATTCGACACACACATAACAACTAAAT [CACACA_site9130]”: the “gcPBM binding intensity (ln)” value came out at 10.23 ± 0.085. As for “ATATATATAAACAAAAGTACATATATAAATTCATTT [XGTACX_site3482]”, the “gcPBM binding intensity (ln)” value amounted to 11.1 ± 0.75. “GTTTATATTTAATTTTTTTGTTTTTTTGTGTAATTC [XGTACX_negctrl_site194]”: the “gcPBM binding intensity (ln)” value is 9.65 ± 0.2. In the case of “TATTTATACTAATATGCATGTAATCGAAATACAGCT [TGCATGCA_site457]”, the “gcPBM binding intensity (ln)” value was 9.685 ± 0.078.

Take “ACAAATAAATAAATATGTACTTAATTATATAATTGA [XGTACX_site5626]”: the “gcPBM binding intensity (ln)” value was 11.2 ± 0.61. On to “ATATATGTATATATGTACATGAATATATAAAGAAAA [CACACA_negctrl_site315]”, for which the “gcPBM binding intensity (ln)” value amounted to 11.1 ± 0.67. In the case of “TAATTTTTTTTTTATAGTACACATATTAAAGAATTA [XGTACX_site2485]”, the “gcPBM binding intensity (ln)” value stood at 11.3 ± 1. As for “ATCTATTCACACTTTTAAAAATTAAATATATTATAT [TGCATGCA_negctrl_site610]”, the “gcPBM binding intensity (ln)” value was 10.1 ± 0.18. Regarding “AATAAAAAAAAAATATATATTTTTTTTTTTTTTTTT [CACACA_negctrl_site54]”, the “gcPBM binding intensity (ln)” value is 10.07 ± 0.092. With GGAATATTAATAAGAGTGCATTTTGTATTCAATATG the figure was 10.07 ± 0.092; with “TAGACTGGACATTAATGTACATAAATATATATGTAT [XGTACX_site7726]”, 11.1 ± 0.72. With “TATAAGAAAAATAACACACACATAAACATATATACA [CACACA_site2785]”, the “gcPBM binding intensity (ln)” value came out at 10.09 ± 0.092. As for “AAAAAAAAAATTCATTGTACATATATATATATATAT [XGTACX_site8346]”, the “gcPBM binding intensity (ln)” value came to 10.8 ± 0.75. In the case of “GTATATATTAAAAAAAAAAAAAAAAAATTAAAATTA [CACACA_negctrl_site572]”, the “gcPBM binding intensity (ln)” value is 9.35 ± 0.11. For the sequence “ATAAGAAGAAGAAAAACACACATATGTAGATATATA [CACACA_site7469]”, the “gcPBM binding intensity (ln)” value amounted to 9.79 ± 0.18. Regarding “ATATATATATATATATGTACTTATTTATATATTTAT [XGTACX_site7811]”, the “gcPBM binding intensity (ln)” value came to 11.2 ± 0.79. Consider “TGGTTATTTATCTTTATTATAAATATTTACAAATAA [CACACA_negctrl_site1773]”, for which the “gcPBM binding intensity (ln)” value stood at 9.94 ± 0.24. Consider “TAAATATTTAAATATTGTACTAGGTATAATTGAATA [XGTACX_site3604]”, for which the “gcPBM binding intensity (ln)” value was 10.8 ± 0.59. Consider “ATAAAAATAAAAAACTGTACATACAAGATGTTACAG [XGTACX_site6690]”, for which the “gcPBM binding intensity (ln)” value came out at 11 ± 0.71. As to “ATGCTTCCTTAGGAATGTACACACATATATAATATG [XGTACX_site873]”, the “gcPBM binding intensity (ln)” value came to 11.2 ± 0.69. Regarding “AAATAATATTTTACATGTACATAATAATTATTGGAT [XGTACX_site2783]”, the “gcPBM binding intensity (ln)” value was found to be 11.1 ± 0.51. Consider “TTATTGTACTTGCTCGCATGCAATAAAAATATATTA [TGCATGCA_site580]”, for which the “gcPBM binding intensity (ln)” value is 11.2 ± 1.1. For ATTATTAATAATTGTGTGCACAAATATTTATATGCT, the “gcPBM binding intensity (ln)” value is 10.5 ± 0.37. Turning to “ATATCAATATAAAGTACACACTATAGTATGTATTAT [CACACA_site5286]”, the “gcPBM binding intensity (ln)” value stood at 11.6 ± 1.1.

“ATATTGTATTATCTTTATGTACCAAAAAAAAAAAAA [CACACA_negctrl_site1036]”: the “gcPBM binding intensity (ln)” value is 10.9 ± 0.69. “TAAAGGATTTTCGAAGCATGCCACCTGTGACATACT [TGCATGCA_site130]”: the “gcPBM binding intensity (ln)” value was 9.86 ± 0.014. As to “TTCTTTTTAAATTACACACACATATATATCTGTATA [CACACA_site5863]”, the “gcPBM binding intensity (ln)” value was determined as 9.91 ± 0.11.

As to “ATGAACATACAATATACACACATATAGATTTATATT [CACACA_site6524]”, the “gcPBM binding intensity (ln)” value worked out at 9.83 ± 0.071. With “TCATTATTAATATGTAGTACATTATATGATATGTAT [XGTACX_site8978]” the figure was 11.4 ± 0.85; with “CATTCAAAGAAAAACTGTACGTGTAGCAAACGTCAT [XGTACX_site2576]”, 11.6 ± 0.81; with “CAAATACCCGGACACACACACACAAAAAAAAAAAAA [CACACA_site4441]”, 11 ± 0.88. As to “ATGGGTATATTTCCACGTACAAAAAATCCGAATTGC [XGTACX_site1490]”, the “gcPBM binding intensity (ln)” value came out at 11.3 ± 0.9.

Values taken from the supplement of paper PMC11417369.
